In the supplement of paper PMC10369915:
The list shows a part of the results. Rule as the data show it: active = 3.2 or more and inactive = the rest. Most of these values are background signal.

These binders were tested against SHP2 C-SH2 domain E139D (assay: enrichment score (SH2-bound / input frequency) (ratio); bacterial display of known human phosphotyrosine sites (pTyr-Var adds point mutants) read by sequencing; higher = stronger binding; tyrosines were phosphorylated by kinases first). Details: peptide library: Human pTyr.
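Also: displayed peptides selected on beads carrying the immobilized SH2 domain, with library peptides lacking any tyrosine serving as negative controls.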

Enrichment score, inactive:
DGYDDDNYDYIVKNG [DYR1A_HUMAN_145] 1.16
SNSNQCVYAAHNSVI [EAA2_HUMAN_539] 1.15
KEILDEAYVMASVDN [EGFR_HUMAN_764] 0.764
VAKDKPVYDELFATL [EHD4_HUMAN_451_YA] 0.911
GEKWMDRYEIDSLIG [DYR1A_HUMAN_159] 0.721
SDVVDWLYHHVEGFP [DVL2_HUMAN_463] 1.1
EHQRVATYIQSRFAR [DYRK2_HUMAN_382_YA] 2.23
KKVSSTHYALLPERP [ACK1_HUMAN_859_YA] 0.993
KKVSSTHYYLLPERP [ACK1_HUMAN_859] 1.59

These binders were tested against SHP2 C-SH2 domain wild-type in the same assay as above. Details: peptide library: Human pTyr.

Enrichment score, inactive:
DGYDDDNYDYIVKNG [DYR1A_HUMAN_145] 0.976
SNSNQCVYAAHNSVI [EAA2_HUMAN_539] 0.906
KEILDEAYVMASVDN [EGFR_HUMAN_764] 0.736
VAKDKPVYDELFATL [EHD4_HUMAN_451_YA] 0.925
GEKWMDRYEIDSLIG [DYR1A_HUMAN_159] 0.598
SDVVDWLYHHVEGFP [DVL2_HUMAN_463] 0.938
EHQRVATYIQSRFAR [DYRK2_HUMAN_382_YA] 2.12
KKVSSTHYALLPERP [ACK1_HUMAN_859_YA] 1.74
KKVSSTHYYLLPERP [ACK1_HUMAN_859] 1.87

What follows are binders tested against SHP2 N-SH2 domain L43F in the same assay as above. Details: peptide library: Human pTyr.

Enrichment score, inactive:
DGYDDDNYDYIVKNG [DYR1A_HUMAN_145] 1.25
SNSNQCVYAAHNSVI [EAA2_HUMAN_539] 1.05
KEILDEAYVMASVDN [EGFR_HUMAN_764] 0.918
VAKDKPVYDELFATL [EHD4_HUMAN_451_YA] 0.863
GEKWMDRYEIDSLIG [DYR1A_HUMAN_159] 0.59
SDVVDWLYHHVEGFP [DVL2_HUMAN_463] 0.876
EHQRVATYIQSRFAR [DYRK2_HUMAN_382_YA] 1.75
KKVSSTHYALLPERP [ACK1_HUMAN_859_YA] 0.936
KKVSSTHYYLLPERP [ACK1_HUMAN_859] 1.83

What follows are binders tested against SHP2 N-SH2 domain T42A in the same assay as above. Details: peptide library: Human pTyr.

Enrichment score, inactive:
DGYDDDNYDYIVKNG [DYR1A_HUMAN_145] 1.05
SNSNQCVYAAHNSVI [EAA2_HUMAN_539] 1.11
KEILDEAYVMASVDN [EGFR_HUMAN_764] 0.786
VAKDKPVYDELFATL [EHD4_HUMAN_451_YA] 0.938
GEKWMDRYEIDSLIG [DYR1A_HUMAN_159] 0.527
SDVVDWLYHHVEGFP [DVL2_HUMAN_463] 0.943
EHQRVATYIQSRFAR [DYRK2_HUMAN_382_YA] 1.86
KKVSSTHYALLPERP [ACK1_HUMAN_859_YA] 1.12
KKVSSTHYYLLPERP [ACK1_HUMAN_859] 1.44

These binders were tested against SHP2 N-SH2 domain T52S in the same assay as above. Details: peptide library: Human pTyr.

Enrichment score, inactive:
DGYDDDNYDYIVKNG [DYR1A_HUMAN_145] 1.11
SNSNQCVYAAHNSVI [EAA2_HUMAN_539] 1.16
KEILDEAYVMASVDN [EGFR_HUMAN_764] 0.808
VAKDKPVYDELFATL [EHD4_HUMAN_451_YA] 1.03
GEKWMDRYEIDSLIG [DYR1A_HUMAN_159] 0.546
SDVVDWLYHHVEGFP [DVL2_HUMAN_463] 1.11
EHQRVATYIQSRFAR [DYRK2_HUMAN_382_YA] 2.65
KKVSSTHYALLPERP [ACK1_HUMAN_859_YA] 1.16
KKVSSTHYYLLPERP [ACK1_HUMAN_859] 1.81

What follows are binders tested against SHP2 N-SH2 domain wild-type in the same assay as above. Details: peptide library: Human pTyr.

Enrichment score, inactive:
DGYDDDNYDYIVKNG [DYR1A_HUMAN_145] 0.909
SNSNQCVYAAHNSVI [EAA2_HUMAN_539] 1.06
KEILDEAYVMASVDN [EGFR_HUMAN_764] 0.894
VAKDKPVYDELFATL [EHD4_HUMAN_451_YA] 0.986
GEKWMDRYEIDSLIG [DYR1A_HUMAN_159] 0.742
SDVVDWLYHHVEGFP [DVL2_HUMAN_463] 0.967
EHQRVATYIQSRFAR [DYRK2_HUMAN_382_YA] 2.45
KKVSSTHYALLPERP [ACK1_HUMAN_859_YA] 1.16
KKVSSTHYYLLPERP [ACK1_HUMAN_859] 1.88
